In all, about 33,000 sequences were measured (“E-score (-0.5 to 0.5)”: median about -0.054, highest 2% from about 0.39 on). The list shows a part of the results.
Biological target: Ylr278c (UniProt Q05854)
Experiment: PBM E-score (8-mer binding enrichment) (E-score (-0.5 to 0.5)); higher = stronger / more preferred TF binding; most listed sequences are background and not binding sites
Conditions: protein concentration: 200 nM; construct: GST-DNA-binding domain
How it was run: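 Each ungapped eight-base word and its reverse complement, pooled, received an E-score from the Universal PBM Analysis Suite. Underlying scans, normalised with masliner, recorded fluorescent anti-GST bound to GST-tagged yeast transcription factors. These were applied at about 100-200 nM to universal all-10-mer Agilent arrays double-stranded by primer extension.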

| Sequence | PBM E-score |
| --- | --- |
| CACTTCTC | -0.0425 |
| CGGCTGAG | 0.0595 |
| CTCCCGAG | -0.0619 |
| CGAGTGCA | 0.0654 |
| AGCTTATC | 0.0115 |
| CTCGTAAG | 0.0182 |
| GCATGTAC | -0.133 |
| GGTGAGCA | -0.141 |
| CATAGCAA | -0.22 |
| ATATTAAA | 0.0784 |
| CTTTACGA | -0.214 |
| CGGTACCA | 0.115 |
| AAAAAGGA | -0.0903 |
| TGTTAAAA | -0.186 |
| CCTGAAGC | -0.291 |
| ACGCAGGC | -0.0932 |
| AAGTCCTG | -0.106 |
| TAAGGTGA | -0.147 |
| CGAAGTAG | 0.0632 |
| CCTAGGCA | -0.106 |
| ACGTTAGC | -0.0336 |
| ATGTACTG | -0.0707 |
| CAGTAAAC | 0.0397 |
| CTCAGGTA | -0.236 |
| ACGGCTCC | 0.2 |

| Sequence | PBM E-score |
| --- | --- |
| ATTAATAC | 0.1 |
| ACAACGAC | 0.0542 |
| GAGGCCTC | 0.0403 |
| AGTAAAGA | 0.0362 |
| AATTTATC | 0.122 |
| ACCTGGAC | -0.174 |
| CTAGATAC | -0.0911 |
| AATCGGAG | 0.466 |
| CAAGACAA | -0.0931 |
| AAAACTAT | -0.0196 |
| TGCTCCCA | -0.175 |
| GGGTGCCA | -0.0219 |
| CTAGGTCC | 0.138 |
| AGCCACCG | 0.126 |
| GAACACCC | 0.014 |
| GCGACAGA | 0.12 |
| AGGTAAAA | -0.0726 |
| TTGTACAA | -0.139 |
| GCAGCTGA | -0.0542 |
| AATCTTTG | -0.0854 |
| CTACAAAA | 0.119 |
| GATTCCCC | 0.22 |
| AACTGTTG | -0.212 |
| GAAGTCGA | -0.112 |
| ATGGTTTG | 0.0845 |

| Sequence | PBM E-score |
| --- | --- |
| ATAGCAGA | -0.174 |
| AAGCCGCA | 0.107 |
| AGCCAAGC | -0.203 |
| GCTCTCAA | -0.106 |
| GAAAGGCC | 0.223 |
| GGGAACCA | -0.206 |
| GGGGACTA | -0.2 |
| CTGGTACA | -0.242 |
| CAAAACAG | -0.17 |
| AGTTCTTC | -0.0597 |
| ACTACACG | -0.145 |
| ATCTTTTG | -0.0886 |
| CGCTTCAA | 0.00316 |
| CCTTTCGA | -0.0883 |
| GCGCTTTA | -0.00327 |
| CACGGCTA | 0.11 |
| CTATGACC | -0.139 |
| TCGGACCA | 0.379 |
| AACTATCG | -0.0554 |
| GCGAGATA | 0.0394 |
| ACGAGAGC | -0.134 |
| AGGGCTAA | -0.0787 |
| ACTAGCTA | -0.0942 |
| AGTTACTA | -0.127 |
| CGATCAAG | -0.00728 |

| Sequence | PBM E-score |
| --- | --- |
| GACTAGGA | -0.0535 |
| CTGGCCTA | -0.192 |
| GAGCAACA | -0.0838 |
| CGGCGAGC | 0.234 |
| GCGATAAA | 0.0153 |
| ACTGGGAG | -0.0587 |
| CGAAGACA | 0.0958 |
| AGGCACTG | -0.178 |
| CCTGCAAG | -0.217 |
| TGACGGAA | 0.286 |
| AGAGCCCT | -0.187 |
| AACGCGCT | 0.0261 |
| CCACTGGC | -0.0844 |
| GCAAATTA | 0.14 |
| AAGTTGCC | 0.111 |
| ATGGCCCG | 0.171 |
| AAGGCTCA | -0.23 |
| CATTCGTA | -0.188 |
| AGGGGTCA | -0.155 |
| TACTCTAA | -0.118 |
| ACATCATG | -0.029 |
| GCTGACAC | -0.126 |
| AGCGGGGG | -0.115 |
| CAGGCGAA | -0.345 |
| AATAGTAA | -0.119 |

| Sequence | PBM E-score |
| --- | --- |
| CGAGTTAG | -0.103 |
| GACAGGGA | -0.125 |
| AAAGCGTT | -0.153 |
| CCCGTAGG | -0.0731 |
| CTACACAA | 0.0469 |
| GGCACCCA | -0.0532 |
| ATAGCCGG | 0.388 |
| CCTCCATA | -0.193 |
| CGCTCCCA | 0.0833 |
| CCTAACTA | 0.0582 |
| GTTTGTAA | -0.0507 |
| CCCAGATC | -0.122 |
| ACATTCTG | -0.246 |
| CAAGAGTC | -0.0993 |
| GCATAACC | 0.0681 |
| ATACCCGG | 0.31 |
| ATGGAAAC | -0.0103 |
| CACTGGGG | -0.0212 |
| CAGACAAA | -0.0575 |
| GCGTCGTA | 0.0408 |
| CCTGCAGA | 0.0252 |
| AACCGCCC | 0.0416 |
| CACAATGC | 0.0426 |
| GAAAGCAC | -0.0922 |
| ATGAATCG | -0.157 |

| Sequence | PBM E-score |
| --- | --- |
| GCAGTGGA | -0.259 |
| ACACTTAG | -0.0913 |
| AGCGGGAC | 0.112 |
| GATTACGA | 0.0367 |
| GACTGCCC | -0.166 |
| GATGGAGC | -0.0617 |
| AAGGCTAA | -0.125 |
| CTGACGGA | 0.217 |
| ACACCAAG | -0.192 |
| AATCGAGC | -0.0727 |
| AACTTCTG | -0.197 |
| CCGCGTAC | 0.19 |
| ACCGACGC | 0.0804 |
| CCAAGGGA | -0.289 |
| CACGGCGA | 0.0929 |
| CCTTCACA | -0.249 |
| ACTACTCC | 0.293 |
| GATGTATA | -0.00628 |
| TCCTGGAA | -0.0446 |
| CCCACACC | -0.0326 |
| GGTGTTCA | -0.0349 |
| AGCAGCAT | -0.0117 |
| CGAGCTGA | 0.0184 |
| AGGTGACC | -0.216 |
| GTACCTAC | -0.298 |

| Sequence | PBM E-score |
| --- | --- |
| ACCTGTTA | -0.262 |
| CTCACCGA | 0.112 |
| ACTTTTGC | -0.0939 |
| CTAGCGTA | -0.0464 |
| AGACTAGC | -0.321 |
| AAGTTGCT | -0.119 |
| ACAGGACA | -0.0363 |
| CGCACTGA | -0.078 |
| GCTAAGGA | -0.265 |
| ACCCGCCG | 0.307 |
| GGACACTA | -0.0657 |
| AGTATCGA | 0.0149 |
| ACACCCAA | -0.0873 |
| AGGCATTG | -0.0254 |
| CGACAGCG | 0.227 |
| TACGAATA | -0.197 |
| ATGTTGGC | -0.0195 |
| AAGTGACC | -0.0859 |
| CGAAGGCA | -0.0856 |
| CCTTTGAC | -0.121 |
| CTCTTGGC | -0.239 |
| CGCGTCAC | -0.174 |

Reference: the supplement of paper PMC3334620
